Test results from PubChem BioAssay AID1345083 (National Center for Advancing Translational Sciences (NCATS), 2018).
Hit rate of the full screen: of about 94,000 compounds, about 6,200 (6.6%) were called active. The shares of active, inactive and inconclusive entries below differ from those in the screen. The call rests on the fitted dose curve; in most records, active means well fitted inhibition curve with a large enough effect; inconclusive means small, poorly fitted or top-dose-only effect; inactive means flat fitted curve, though single readings scatter. Potencies beside an inconclusive call are fits to weak or partial responses and may not hold up.
Potency means the concentration at half of the fitted maximal effect; tags describe the fitted curve by direction and shape.

Test: Cytotoxic Profiling in HEK 293 Cell Line of Diverse Libraries Using Quantitative High-Throughput Screening; further: nearly all actives have a fitted effect of over 60% in size
Details: HEK 293 viability, ATP luminescence (CellTiter-Glo), 48-72 h; series mostly up to 115 µM
In short: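 HEK 293 seeded at 250 cells/well receive compound via pintool. After 48 or 72 hr at 37 degree Celsius, 5% CO2 and 95% humidity, CellTiter-Glo is dispensed and luminescence read following 10 min at room temperature.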
In the case of `CN(C)C(=O)CN1CCCc2nc(C3CC3)ncc2C1=O`, the Potency is reported as “inactive”. With `COc1ccc2nc3n(c2c1)[C@@H](CNS(=O)(=O)Cc1ccccc1)COC3` the Potency was inconclusive: 112 µM [inhibitor, partial curve]. In the case of `COc1ccc(-c2[nH]nc3ncc(-c4ccccc4F)nc23)cc1F`, the Potency is reported as inconclusive: 35.5 µM [inhibitor, partial curve, poor fit]. With `CCCCCN1CCc2ccccc2OCC(=O)N(C)[C@@H](Cc2ccc(OCCO)cc2)C1=O` the Potency was inconclusive: 89.1 µM [inhibitor, single point]. For `O=[S+]([O-])(c1cccnc1)N1CCNc2cnc(Nc3ccc(-n4ccnc4)cc3)nc2C1`, the Potency was “inactive”. With `Cc1ccc([S+](=O)([O-])N2CCC[C@@H]2C(=O)N2CCCC(c3nc4ccncc4[nH]3)C2)cc1` (some centres not stated) the Potency was “inactive”. For `O=C(CN1C(=O)NC(c2ccccc2Cl)C2=C1COC2=O)Nc1ccc(F)c(Cl)c1` (configuration not stated), the Potency was inconclusive: 50.1 µM [inhibitor, partial curve, poor fit]. With `COc1ncccc1-c1cnc2[nH]cc(CC(=O)Nc3ccn(C)n3)c2c1` the Potency was inconclusive: 100 µM [inhibitor, partial curve]. In the case of `COc1ccccc1Nc1ccnc(N2CCC[C@H]2C(=O)NCc2ccc(C(F)(F)F)cc2)n1`, the Potency is reported as inconclusive: 50.1 µM [inhibitor, partial curve, poor fit]. For `Cn1ncc2c(C(=O)NCc3ccccn3)cc(-c3cccnc3)nc21`, the Potency was inconclusive: 63.1 µM [inhibitor, partial curve, poor fit]. In the case of `O=C([C@@H]1C[C@H](F)CN1S(=O)(=O)c1cccc(F)c1)N1CCc2ccccc2C1`, the Potency is reported as inconclusive: 89.1 µM [inhibitor, single point]. In the case of `CNC(=O)[C@@H](CC(C)C)N1CCC[C@H]1C(=O)NCCc1ccccn1`, the Potency is reported as “inactive”. For `O=C(CCCc1ccccc1)N1CCN(c2cc(-c3ccccc3)[nH]n2)CC1`, the Potency was inconclusive: 56.2 µM [inhibitor, partial curve, poor fit]. For `O=C1CC(c2noc(-c3ccc(C(F)(F)F)cc3)n2)CN1C1CCCCC1` (configuration not stated), the Potency was inconclusive: 44.7 µM [inhibitor, partial curve, poor fit]. For `Cn1nc(C(=O)N2CCCN(Cc3ccncc3)C(c3ccccc3)CC(=O)NCC2)c2ccccc21` (configuration not stated), the Potency was “inactive”. In the case of `Cn1cccc1CN1CCn2c(nn(-c3cccc(Cl)c3)c2=O)C1`, the Potency is reported as inconclusive: 112 µM [inhibitor, partial curve, poor fit]. For `Cc1ccc(-c2cccc(COc3cnc4c(ccn4CC(=O)O)c3)c2)cc1`, the Potency was inconclusive: 100 µM [inhibitor, partial curve].
